About 50,000 (12%) of roughly 420,000 compounds were called active. The inconclusive results got no clear call from the source; some entries with a clear call stand among them for comparison. Calls follow the shape of the dose curve; as a rule, active = well fitted inhibition curve with a large enough effect; inconclusive = small, poorly fitted or top-dose-only effect; inactive = flat fitted curve, though single readings scatter. Potencies of inconclusive entries are left out as doubtful fits.
experiment: qHTS for Inhibitors of human tyrosyl-DNA phosphodiesterase 1 (TDP1): qHTS in cells in presence of CPT; settings: chicken DT40 Tdp1-/-;hTDP1 cells + 20 nM CPT, ATP luminescence, 48 h; activity change, negative = growth inhibition: at 46.2 µM (top of the series) unless noted; also: nearly all actives have a fitted effect of over 55% in size
Outline: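 Cell growth measured by CellTiter-Glo luminescence after a minimum 48 h, 37 C compound exposure with 20 nM CPT in Tdp1-knockout DT40 cells stably expressing hTDP1, seeded 400/well; qHTS titration format.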
% is scaled to controls: 0 for no effect and ±100 for the full control effect; potency is read from the fitted curve at half-maximal effect; tags tell the direction and shape of the fitted curve.

Compound | Potency | activity change, negative = growth inhibition
CC(=O)c1c(C)[nH]c(C(=O)OCC(=O)Nc2ccc3c(c2)OCCO3)c1C | inconclusive [inhibitor, single point] | 
Cc1ccc(C(=O)Nc2cccc(S(=O)(=O)N3CCCCC3)c2)cc1S(=O)(=O)N1CCOCC1 | inconclusive [inhibitor, partial curve] | 
COCCN=c1scc(-c2ccc3c(c2)NC(=O)CO3)n1/N=C(\C)c1ccc(O)cc1 | inconclusive [inhibitor, full curve, poor fit] | 
C[C@H](CO)N1C[C@H](C)[C@@H](CN(C)S(=O)(=O)c2cn(C)cn2)Oc2ccc(NC(=O)Nc3ccccc3)cc2C1=O | inconclusive [inhibitor, single point] | 
Cc1ccc(C(=O)NCC(=O)OCC(=O)c2cccc3ccccc23)cc1 | inconclusive [inhibitor, full curve, poor fit] | 
Cc1cccc(C2c3[nH]c4ccccc4c3CCN2Cc2cccn2-c2ncccn2)c1 (stereo unspecified) | inconclusive [inhibitor, partial curve] | 
C/C(=C/CCC(C)(O)C1CC[C@@]2(C)[C@@H]3CC=C4[C@@H](CC[C@H](O[C@H]5O[C@@H](CO)[C@H](O)[C@@H](O)[C@@H]5O)C4(C)C)[C@]3(C)C(=O)C[C@]12C)CO[C@@H]1O[C@H](CO)[C@@H](O)[C@H](O)[C@H]1O (stereo partly specified) | inactive | 
CCOC(=O)C1CCN(Cc2nc3ccccc3c(=O)n2-c2ccc(F)cc2)CC1 | inconclusive [inhibitor, partial curve] | 
O=C1NCC(CN(c2ccccc2)c2ccccc2)O1 (stereo unspecified) |  | inconclusive: -35% [inhibitor]
OCC1(Cc2ccccc2)CCCN(Cc2ccc(-c3ccco3)cc2)C1 (stereo unspecified) | inconclusive [inhibitor, partial curve] | 
Cc1ccc2c(C)cc[n+](CCCS(=O)(=O)[O-])c2c1 | inactive | 
Cc1ccc(C)c(Cn2c(=O)n(CCCCC(=O)NCc3ccccc3Cl)c(=O)c3ccccc32)c1 | active: 7.31 µM | 
COc1cccc(-c2cc(N)nn2C(=O)Nc2ccc(Cl)cc2)c1 | inconclusive [inhibitor, single point] | 
CCn1ccc2cc(S(=O)(=O)N3CCC(C(=O)NCc4cccc(C)c4)CC3)ccc21 | inconclusive [inhibitor, single point] | 
COc1ccc(CCN(C)S(=O)(=O)c2ccc(Cl)nc2)cc1OC | inactive | 
Cc1c(N=Cc2c(O)n(Cc3ccco3)c(=O)c3ccccc23)c(=O)n(-c2ccccc2)n1C | active: 20.6 µM | 
